From US20180289790A1 (Bristol-Myers Squibb, published 2018) come the findings set out here.

Values joined by “and” are separate entries in the source; they are usually repeats but may differ in a detail not shown here. Equal entries are not always repeated.

The target in experiment [1] is T1, human ICOS (huICOS), on activated human CD4+ T cells (human, UniProt Q9Y6W8 21-199).
T1 sequence: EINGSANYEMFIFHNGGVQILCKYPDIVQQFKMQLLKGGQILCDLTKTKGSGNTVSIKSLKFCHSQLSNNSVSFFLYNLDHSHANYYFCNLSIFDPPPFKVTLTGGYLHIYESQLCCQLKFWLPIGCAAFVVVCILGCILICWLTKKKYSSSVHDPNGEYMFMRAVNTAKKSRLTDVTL
The experiment in a line: cell-based or functional assay.

Experiment [2] concerns the target T1, human ICOS (huICOS), on activated human …. The experiment in a line: flow cytometry on activated CD4+ T cells, 30 min on ice, detection with anti-human-IgG-PE, MFI.
Experiment [3] shares this target. The experiment is described as above. This is another data set of the same source.
Experiment [4] shares this target. As to the kind of experiment: flow cytometry (FACS, GMFI) on CD3/CD28-activated human CD4+ T cells, detection with APC goat anti-human IgG (Fc gamma); the table head prints µg/ml, the x axis of the plot is [Ab] (nM). (In general: Flow cytometry measures light scatter and fluorescence of single cells or particles in a stream.)
The target of experiment [5] is T2, cynomolgus monkey ICOS, on activated cynomolgus T cells (cynomolgus monkey, UniProt A0A2K5TQR6 21-168).
T2 construct: also called cynomolgus ICOS
T2 sequence: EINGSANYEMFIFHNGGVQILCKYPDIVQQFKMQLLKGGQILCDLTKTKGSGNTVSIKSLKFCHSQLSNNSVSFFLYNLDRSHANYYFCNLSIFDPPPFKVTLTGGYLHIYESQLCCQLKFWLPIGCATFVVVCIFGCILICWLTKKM
The experiment in a line: flow cytometry (FACS, GMFI) on CD3/CD28-activated cynomolgus PBMC (T cells), detection with APC goat anti-human IgG (Fc gamma); the table head prints µg/ml, the x axis of the plot is [Ab] (nM).

For experiment [6], the target named is T3, rat ICOS, on activated rat T cells (rat, UniProt Q9R1T7 21-200).
T3 construct: whole, on cells
T3 sequence (looked up): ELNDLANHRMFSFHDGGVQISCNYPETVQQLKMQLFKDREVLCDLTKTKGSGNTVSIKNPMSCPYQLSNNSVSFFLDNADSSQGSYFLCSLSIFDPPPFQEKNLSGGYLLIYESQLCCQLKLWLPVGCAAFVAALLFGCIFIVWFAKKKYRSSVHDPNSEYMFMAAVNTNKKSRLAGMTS
As to the kind of experiment: flow cytometry (FACS, GMFI) on CD3/CD28-activated rat splenocytes (T cells), detection with APC goat anti-human IgG (Fc gamma); the table head prints µg/ml, the x axis of the plot is [Ab] (nM).

The target of experiment [7] is T4, mouse ICOS, on activated mouse T cells (mouse, UniProt Q9WVS0 21-200).
T4 construct: whole, on cells
T4 sequence (looked up): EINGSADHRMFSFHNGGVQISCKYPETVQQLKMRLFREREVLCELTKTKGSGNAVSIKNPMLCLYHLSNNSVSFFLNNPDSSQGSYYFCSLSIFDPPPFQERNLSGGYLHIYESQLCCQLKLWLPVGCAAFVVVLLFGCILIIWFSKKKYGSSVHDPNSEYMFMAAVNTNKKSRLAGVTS
As to the kind of experiment: flow cytometry (FACS, GMFI) on CD3/CD28-activated mouse splenocytes (T cells), detection with APC goat anti-human IgG (Fc gamma); the table head prints µg/ml, the x axis of the plot is [Ab] (nM).

B1: ICOS.33 IgG1f S267E (antibody)
heavy: EVQLVESGGGLVKPGGSLRLSCAASGFTFSDYFMHWVRQAPGKGLEWVGVIDTKSFNYATYYSDLVKGRFTISRDDSKNTLYLQMNSLKTEDTAVYYCTATIAVPYYFDYWGQGTLVTVSSASTKGPSVFPLAPSSKSTSGGTAALGCLVKDYFPEPVTVSWNSGALTSGVHTFPAVLQSSGLYSLSSVVTVPSSSLGTQTYICNVNHKPSNTKVDKRV[human IgG1 Fc with changes not shown]
light: DIQMTQSPSSLSASVGDRVTITCQASQDISNYLSWYQQKPGKAPKLLIYYTNLLAEGVPSRFSGSGSGTDFTFTISSLQPEDIATYYCQQYYNYRTFGPGTKVDIKRTVAAPSVFIFPPSDEQLKSGTASVVCLLNNFYPREAKVQWKVDNALQSGNSQESVTEQDSKDSTYSLSSTLTLSKADYEKHKVYACEVTHQGLSSPVTKSFNRGEC
notes: Humanized anti-human ICOS antibody, human IgG1f with S267E (EU numbering); also called ICOS.33-g1f-S267E
As for B1, the “mean EC50 of IFN-γ induction, CHO-scFv-CD3-CD32A/CD25-CD4+ T cell assay” value in experiment [1] was found to be 0.083 nM. The “mean EC50 of proliferation, CHO-scFv-CD3-CD32A/CD25-CD4+ T cell assay” value in experiment [1] was determined as 0.083 nM. Further, the EC50 is 0.0682 µg/mL in experiment [2]; 0.0823 µg/mL in experiment [3]; 0.671 µg/mL in experiment [4]; 0.309 µg/mL in experiment [5]; 0.141 µg/mL and 0.163 µg/mL in experiment [6]; 0.251 µg/mL and 0.213 µg/mL in experiment [7].

A word on the EC50: it is the concentration at which the effect is half-maximal.
